Measurements as given in PubChem BioAssay AID504333 (National Center for Advancing Translational Sciences (NCATS), 2011).
Out of some 360,000 compounds screened, about 16,000 (4.4%) were called active. The shares of active, inactive and inconclusive entries below differ from those in the screen. Calls follow the shape of the dose curve; as a rule, active = well fitted inhibition curve with a large enough effect; inconclusive = small, poorly fitted or top-dose-only effect; inactive = no such curve, though single readings can be large or run the other way. Where the call is inconclusive, the potency comes from a doubtful curve fit.

Molecular target: Bromodomain adjacent to zinc finger domain protein 2B (Homo sapiens) (UniProt Q9UIF8)
UniProt Q9UIF8, sequence (Q9UIF8 whole entry, looked up, the tested form may be a part): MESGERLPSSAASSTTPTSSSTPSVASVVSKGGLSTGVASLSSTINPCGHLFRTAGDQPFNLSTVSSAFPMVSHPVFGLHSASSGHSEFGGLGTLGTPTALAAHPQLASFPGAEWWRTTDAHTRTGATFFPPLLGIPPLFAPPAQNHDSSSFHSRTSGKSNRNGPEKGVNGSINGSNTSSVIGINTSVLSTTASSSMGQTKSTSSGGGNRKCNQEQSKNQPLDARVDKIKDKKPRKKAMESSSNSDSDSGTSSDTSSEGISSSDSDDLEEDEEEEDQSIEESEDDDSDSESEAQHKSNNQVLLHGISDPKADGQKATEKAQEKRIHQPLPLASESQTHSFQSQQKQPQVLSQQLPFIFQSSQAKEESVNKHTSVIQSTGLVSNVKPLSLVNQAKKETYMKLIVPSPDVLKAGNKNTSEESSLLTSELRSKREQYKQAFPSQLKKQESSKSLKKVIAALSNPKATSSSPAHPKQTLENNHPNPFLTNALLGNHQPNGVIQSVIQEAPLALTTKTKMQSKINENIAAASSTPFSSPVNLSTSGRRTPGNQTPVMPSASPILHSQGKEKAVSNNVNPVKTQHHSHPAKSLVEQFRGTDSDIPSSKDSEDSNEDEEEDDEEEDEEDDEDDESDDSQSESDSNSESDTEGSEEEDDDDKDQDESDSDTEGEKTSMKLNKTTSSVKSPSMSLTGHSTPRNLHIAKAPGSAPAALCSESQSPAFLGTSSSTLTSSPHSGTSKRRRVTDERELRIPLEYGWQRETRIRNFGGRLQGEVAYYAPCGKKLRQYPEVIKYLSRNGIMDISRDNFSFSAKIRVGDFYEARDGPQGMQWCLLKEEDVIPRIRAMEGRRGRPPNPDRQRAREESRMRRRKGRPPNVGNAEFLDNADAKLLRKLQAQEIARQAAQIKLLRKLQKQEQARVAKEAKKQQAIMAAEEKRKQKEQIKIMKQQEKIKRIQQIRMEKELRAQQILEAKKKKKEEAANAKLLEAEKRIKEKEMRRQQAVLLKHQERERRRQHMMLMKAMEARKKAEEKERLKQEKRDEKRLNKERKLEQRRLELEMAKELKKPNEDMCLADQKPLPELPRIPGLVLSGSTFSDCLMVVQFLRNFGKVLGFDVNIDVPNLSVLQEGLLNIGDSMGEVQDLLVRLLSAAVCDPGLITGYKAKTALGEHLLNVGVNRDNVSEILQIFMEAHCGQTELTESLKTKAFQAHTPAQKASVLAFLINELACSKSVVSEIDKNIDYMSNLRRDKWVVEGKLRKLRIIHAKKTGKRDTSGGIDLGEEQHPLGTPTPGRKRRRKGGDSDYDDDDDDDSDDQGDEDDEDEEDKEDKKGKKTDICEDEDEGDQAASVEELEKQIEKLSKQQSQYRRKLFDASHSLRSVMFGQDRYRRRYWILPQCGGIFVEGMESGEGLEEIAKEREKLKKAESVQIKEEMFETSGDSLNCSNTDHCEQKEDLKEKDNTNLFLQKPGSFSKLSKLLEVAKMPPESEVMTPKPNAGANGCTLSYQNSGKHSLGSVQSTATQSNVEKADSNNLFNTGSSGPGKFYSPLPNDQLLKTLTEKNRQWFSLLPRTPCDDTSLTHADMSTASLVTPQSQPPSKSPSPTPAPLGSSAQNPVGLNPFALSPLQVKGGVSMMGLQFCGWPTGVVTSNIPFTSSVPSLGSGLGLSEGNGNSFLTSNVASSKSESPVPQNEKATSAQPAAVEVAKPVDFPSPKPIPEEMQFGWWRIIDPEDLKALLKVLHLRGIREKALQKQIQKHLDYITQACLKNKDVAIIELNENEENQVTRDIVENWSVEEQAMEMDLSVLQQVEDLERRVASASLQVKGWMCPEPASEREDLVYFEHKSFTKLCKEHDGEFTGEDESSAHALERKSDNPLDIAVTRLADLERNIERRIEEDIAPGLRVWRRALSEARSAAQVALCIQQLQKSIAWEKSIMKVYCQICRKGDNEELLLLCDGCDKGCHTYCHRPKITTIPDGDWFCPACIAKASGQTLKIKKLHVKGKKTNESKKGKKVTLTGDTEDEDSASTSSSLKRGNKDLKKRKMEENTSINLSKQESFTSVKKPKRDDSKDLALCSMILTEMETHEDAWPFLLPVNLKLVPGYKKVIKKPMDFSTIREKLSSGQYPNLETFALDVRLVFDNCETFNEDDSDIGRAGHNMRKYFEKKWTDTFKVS
Assay: qHTS Assay for Inhibitors of BAZ2B; also: nearly all actives have a fitted effect of over 60% in size
Details: AlphaScreen BAZ2B-H3K14Ac peptide displacement; series mostly up to 114 µM
Description: BAZ2B (bromodomain adjacent to zinc finger domain, 2B) belongs to a family of ubiquitously expressed bromodomain containing proteins, which biological function has not yet been elucidated. […] The interaction of BAZ2B with ISWI mediated by the BAZ1 motif has recently been described. […] The protocol is based on the AlphaScreen (PerkinElmer) displacement assay developed by NCGC [5], but uses the peptide ligand Biot-H3K14Ac, a high affinity binding partner for BAZ2B, in an AlphaScreen format. Although AlphaScreen has significant advantages with its utility in a variety of epigenetic target assays, the primary screening data provided in this deposition should be used with caution due to the prevalence of screening artifacts. The top compound concentration tested was 110uM in this assay, which increases number of actives and potential artifacts. An AlphaScreen counterscreen is highly recommended to be run against any putative actives to eliminate non-specific artifacts. Alternatively, one can use other AlphaScreen assays in PubChem to filter out promiscuous hits. Eberharter, A. et al. ACF1 improves the effectiveness of nucleosome mobilization by ISWI through PHD-histone contacts. The EMBO journal 23, 4029-4039. 2004. PMID: 15457208 [2] Jones, M.H. et al. A novel family of bromodomain genes. Genomics 63, 40-45. 2000. PMID: 10662543 [3] Yasgar, et al. Compound Management for Quantitative High-Throughput Screening. JALA. 2008 Apr;13(2):79-89. PMID: 18496600 [4] Inglese, et al. Quantitative high-throughput screening: a titration-based approach that efficiently identifies biological activities in large chemical libraries. Proc Natl Acad Sci. 1;103(31):11473-8. 2006. PMID: 16864780 [5] Quinn et al. A chemiluminescence-based method for identification of histone lysine methyltransferase inhibitors. Mol Biosyst 6(5): 782-8. 2010. PMID: 20567762 [6] Baell,Holloway. New substructure filters for removal of pan assay interference compounds (PAINS) from screening libraries and for their exclusion in bioassays. J Med Chem. 53(7):2719-40. 2010. PMID: 20131845 NIH Molecular Libraries Probe Production Network [MLPCN] NIH Chemical Genomics Center [NCGC] Structural Genomics Consortium (SGC) NIH Grant: 5U54 MH084681-02
To each well of a 1,536w plate, 2ul of BAZ2B protein (final 50nM) and 1ul biotinylated histone peptide acetylated at Lys14 [b-H3(5-23)K14Ac] (final 50nM) were added in 1x PBS buffer, pH 7.4, containing 0.01% Tween-20, using a nanoliter dispenser. Formation of a protein-peptide complex proceeded at room temperature for 30 min. A Kalypsys pin-tool was employed to transfer 23 nL of library compound solution in DMSO to each well. Following a 30 min incubation of the protein-peptide complex with compounds at room temperature, a mixture of 40 ug/mL each streptavidin-coated donor and nickel chelate acceptor AlphaScreen beads (final 10 ug/mL) were added in a 1ul dispense for a final volume of 4ul. A brief centrifugation followed (1000rpm, 1 min) and were then incubated protected from the light for 20 min at room temperature. Plates were read on an EnVision multilabel plate reader using the 1,536 plate HTS AlphaScreen aperture (excitation time 80 ms, measurement time 240 ms).
Potency is read from the fitted curve at half-maximal effect; tags tell the direction and shape of the fitted curve.

SMILES | Potency
CCOc1ccc(NC(=O)c2cc(=O)[nH]c3ccccc23)cc1 | active: 56.2 µM
COc1ccc(NC(=O)c2nn(C)c3c2CSc2ccc(C)cc2-3)cc1OC | inconclusive: 39.8 µM [inhibitor, partial curve]
O=C(N/N=C/c1cccc2nccnc12)c1ccccc1O | active: 28.2 µM
CCc1c(C)sc(NC(=O)Cc2ccccc2C)c1C(=O)N1CCOCC1 | inactive
C=CCNc1ccc(N2C(=O)C3CCC(C)CC3C2=O)cc1[N+](=O)[O-] (stereo not given) | inconclusive: 39.8 µM [inhibitor, partial curve]
COC(=O)c1c(=O)n(O)c2ccc(OC)cc2[n+]1[O-] | inconclusive: 79.4 µM [inhibitor, single point]
Cc1nc(N)sc1Cc1ccc2c(c1)OCO2 | inconclusive: 89.1 µM [inhibitor, single point]
COc1cc(/C=N/N2CCN(c3ccccc3)CC2)ccc1OC(C)=O | inconclusive: 89.1 µM [inhibitor, single point]
COc1ccc(CNC(=O)CN2C(=O)COc3ccc(S(=O)(=O)N4CCCCCC4)cc32)cc1 | inactive
O=C(O)COc1ccccc1/C=N/NC(=O)CSc1nc2ccccc2c(=O)n1-c1ccccc1 | inconclusive: 79.4 µM [inhibitor, single point]
O=C(Nc1cccc(Cl)c1N1CCOCC1)c1ccc(Br)o1 | inconclusive: 25.1 µM [inhibitor, partial curve]
COC(=O)c1sccc1S(=O)(=O)N(CC(=O)Nc1cc(C)cc(C)c1)c1ccc(Cl)cc1 | inactive
Cc1ccc(N(CC(=O)Nc2ccc3c(c2)OCCO3)S(=O)(=O)c2c(C)n[nH]c2C)cc1 | inconclusive: 89.1 µM [inhibitor, single point]
COc1cc(OC)c(NS(=O)(=O)c2c(C)[nH]c(=O)[nH]c2=O)cc1Cl | inactive
COC(=O)[C@@]12CCCN1[C@H](c1ccc(-c3cccc(Cl)c3)c(OC)c1)[C@H]1C(=O)N(C)C(=O)[C@H]12 | inconclusive: 50.1 µM [inhibitor, partial curve]
O=[N+]([O-])c1ccc(N/N=C/c2cccc(O)c2O)c(S(=O)(=O)N2CCOCC2)c1 | inconclusive: 56.2 µM [inhibitor, partial curve]
O=C(Sc1nnc(-c2ccccc2)o1)N1c2ccccc2Sc2ccccc21 | inconclusive: 44.7 µM [inhibitor, partial curve]
O=C(CN1CCN(S(=O)(=O)c2ccc(Br)cc2)CC1)c1ccc(O)c(O)c1 | inconclusive: 50.1 µM [inhibitor, partial curve]
OCCN1CCN(CC(O)COc2ccc(-c3ccccc3)cc2)CC1 (stereo not given) | inconclusive: 100 µM [inhibitor, single point]
O=C(NCCCN1CCN(c2cccc(Cl)c2)CC1)c1ccc(N2CCCC2=O)cc1 | inconclusive: 50.1 µM [inhibitor, partial curve]
C=CCn1sc(N)c(C(=O)OCC)c1=S | inconclusive: 89.1 µM [inhibitor, single point]
CSc1cccc(NC(=O)c2[nH]c(C)c(C(C)=O)c2C)c1 | active: 50.1 µM
O=C(Nc1cccnc1Cl)c1ccc(=O)oc1 | active: 56.2 µM

SMILES | Potency
COc1ccc(-c2cc(=O)oc3c(O)c(O)ccc23)cc1 | inconclusive: 35.5 µM [inhibitor, partial curve]
Cc1nn(C)c(C)c1CS(=O)(=O)c1ccccc1 | inactive
Cc1cc(C)c(NC(=O)COCc2cc(-c3cccs3)on2)c(C)c1 | inactive
CSCc1c(C(=O)Nc2ccc3c(c2)OCO3)oc2ccccc12 | inconclusive: 31.6 µM [inhibitor, partial curve]
O=c1ccc2cc(S(=O)(=O)NCc3ccc(Cl)cc3)ccc2[nH]1 | inconclusive: 50.1 µM [inhibitor, partial curve]
CCOC(=O)[C@H]1[C@H]2COc3ccccc3[C@@H]2N2C(=O)c3cc(OC)c(OC)cc3NC(=O)[C@@]12C | inconclusive: 89.1 µM [inhibitor, single point]
O=C(COC(=O)c1c(F)cccc1F)NCc1ccc2c(c1)OCO2 | inconclusive: 79.4 µM [inhibitor, single point]
Fc1cccc(NC(=S)NNc2ccccc2)c1 | active: 39.8 µM
NC(=O)CC(NC(=O)Cc1ccc(Br)cc1)c1ccc(NCCN2CCCCC2)c([N+](=O)[O-])c1 (stereo not given) | active: 50.1 µM
CCC(CC)Nc1ccc(C(CC(N)=O)NC(=O)Cc2cccc3ccccc23)cc1[N+](=O)[O-] (stereo not given) | inconclusive: 79.4 µM [inhibitor, single point]
S=C(Nc1cccc(Cl)c1)Nc1ccc2c(c1)OCCO2 | inactive
COc1cc(NC(=O)Cn2c(=O)n(-c3ccccc3)c(=O)c3c4c(sc32)CCCC4)cc(OC)c1 | inactive
C/C(=N\Nc1nncc2ccccc12)c1ccc(OCC(=O)N(C)C)cc1 | inconclusive: 50.1 µM [inhibitor, partial curve]
COC(=O)/C=c1\[nH]c2nnc(C)n2c1=O | inactive
Brc1ccccc1OCCN1CCOCC1 | inconclusive: 89.1 µM [inhibitor, single point]
CCOc1ccc(S(=O)(=O)Nc2nc3ccccc3nc2Nc2ccc(N3CCOCC3)cc2)cc1 | active: 28.2 µM
CSc1ccc(CNC(=O)c2ccc3c(c2)N(C)C(=O)C2CCCCN32)cc1 (stereo not given) | inactive
CCOc1cc(/C=N/NC(=O)c2ccc(CN3CCOCC3)cc2)ccc1OC | inactive
Cc1ccc(C(=O)NNC(=O)/C=C\C(=O)O)cc1 | inconclusive: 56.2 µM [inhibitor, partial curve]
CC(NC(=O)C(=O)N1CCCCC1)C(c1cccs1)N1CCN(c2ccc(F)cc2)CC1 (stereo not given) | inconclusive: 39.8 µM [inhibitor, full curve]
Cc1ccc(CNC(=O)c2c(-c3ccc(F)cc3F)noc2C)o1 | inactive
O=c1c2cc(Cl)ccc2nc(-c2ccc([N+](=O)[O-])cc2)n1O | inconclusive: 79.4 µM [inhibitor, single point]
